# The other results are listed elsewhere or left out.
# B1: Epa1-NP (Candida glabrata), Q6VBJ0 (protein)
# chain: MILNPALFLNKCVCIYTTLILLLLTNGGYATSSNDISLASKDPTTFPLGCSPDITTPKKGLSMELYSYDFRKKGSYPCWDAAYLDPNYPRTGYKSHRLLAKVDGVTGNINFYYHATKGCTPQLGHLPASYNYPKPLTMTNFTMLLYGYFRPKVTGFHTFTISADDLLFVNFGAGNAFDCCRRDSSADHFGNYQAYAIWGSKTAKDELTVHLDAGVYYPIRLFYNNREYDGALSFTFKTESNENTVSDFSEYFFSLDDTEEGCPGLISYDSSCASVKTSKIIGIDYHTETPNENLVPITKTIYHLGIPCTGTTTTPLCGSGFYDPLANKCVTINTSSTSSVTKTTSHTTSKEVSFHSSISSQKTLIPKSIPSPYGPIKSQSIPTEMETSSEISSSEYAFSDVISTPSHSPYTKKHSSLNSSSYTSTVIHSLTSYSISQGIFSTSLSEQNITSKSSTDKFSTATSMSNNITQSSIIISQFSTNNENYTTTSMHTSSDKISTETLNNSISTTTSILFSNSSTILKNNTTIISSDKDTHYHPVNPTIVCSTNKTEIICASITQPSISNSNNHWSSSVLKFNSTTVRSTLPSSAGSNETSINVPFSSSTESNTSTSSTSTSNSKMVRSTLPSSAGSNETSISVPFSSSTESNTSTSSTSTSNSKMVRSTLPSSAGSNETSINVPFSSSTESNTSTSSTSTSNSKTVRSTPFSSAGIIMTSLSQRNNKSASSYASSNSKCYNTADSCRKVHSTPSYLLTSSYTSEGVDYDCSLVSTKLKINDTNCVNNKHTTKSCLKTSVTTTIPTLEIKTARKSSSNTIGLHSYPTSSPNKSISSAPIIGYISSFKTIKTASPSYQTSDLTTITTITSLNNPGSTAVENTHESNDKSRKTSSNDISSKHSVIKETKDAVESSNKSHQTNTLKCSSIIIASSSHNSYESLGGTTLTLTLSKVYSPQNNDTLPFLEISEVNPSRTVLPESSKMMQYLTSTEERNKTARNTIATNIVSISTFHFEGEGNAIRMGYTQLLLMLIGIIVMNIGT
# Key:
# Assay in all cases: glycan array binding signal (z-score within array); higher = stronger binding
# Details in all cases: glycan notation: IUPAC condensed, linker removed
# Gal(a1-4)Gal(b1-4)GlcNAc = molecular target: Gal(a1-4)Gal(b1-4)GlcNAc
# In short: (§1)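 The Consortium for Functional Glycomics database supplied 3228 glycan arrays, of which those lacking an available protein sequence were dropped. The binding signal, a within-array Z-score, was averaged across arrays of the same protein sequence and across linkers. Negative scores can be read as non-binding.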
# [1] = molecular target: Gal(a1-4)Gal(b1-4)GlcNAc(b1-2)Man(a1-3)[Gal(a1-4)Gal(b1-4)GlcNAc(b1-2)Man(a1-6)]Man(b1-4)GlcNAc(b1-4)GlcNAc
# In short: as §1
# [2] = molecular target: Gal(a1-4)Gal(b1-4)GlcNAc(b1-3)Gal(b1-4)Glc
# In short: as §1
# Gal(a1-4)GlcNAc = molecular target: Gal(a1-4)GlcNAc
# In short: as §1
# Gal(a1-6)Glc = molecular target: Gal(a1-6)Glc
# In short: as §1
# Gal(b1-2)Gal = molecular target: Gal(b1-2)Gal
# In short: as §1
# Gal(b1-3)Gal = molecular target: Gal(b1-3)Gal
# In short: as §1
# Gal(b1-3)Gal(b1-4)GlcNAc = molecular target: Gal(b1-3)Gal(b1-4)GlcNAc
# In short: as §1
# [3] = molecular target: Gal(b1-3)Gal(b1-4)GlcNAc(b1-2)Man(a1-3)[Gal(b1-3)Gal(b1-4)GlcNAc(b1-2)Man(a1-6)]Man(b1-4)GlcNAc(b1-4)GlcNAc
# In short: as §1
# Gal(b1-3)GalNAc = molecular target: Gal(b1-3)GalNAc
# In short: as §1
# [4] = molecular target: Gal(b1-3)GalNAc(a1-3)[Fuc(a1-2)]Gal(b1-4)Glc
# In short: as §1
# [5] = molecular target: Gal(b1-3)GalNAc(a1-3)[Fuc(a1-2)]Gal(b1-4)GlcNAc
# In short: as §1
# Gal(b1-3)GalNAc(b1-3)Gal = molecular target: Gal(b1-3)GalNAc(b1-3)Gal
# In short: as §1
# [6] = molecular target: Gal(b1-3)GalNAc(b1-3)Gal(a1-4)Gal(b1-4)Glc
# In short: as §1
# [7] = molecular target: Gal(b1-3)GalNAc(b1-3)Gal(b1-4)Glc
# In short: as §1
# [8] = molecular target: Gal(b1-3)GalNAc(b1-3)Gal(b1-4)GlcNAc
# In short: as §1
# [9] = molecular target: Gal(b1-3)GalNAc(b1-4)Gal(b1-4)Glc
# In short: as §1
# [10] = molecular target: Gal(b1-3)GalNAc(b1-4)[Neu5Ac(a2-3)]Gal(b1-4)Glc
# In short: as §1
# Gal(b1-3)GlcNAc = molecular target: Gal(b1-3)GlcNAc
# In short: as §1
# [11] = molecular target: Gal(b1-3)GlcNAc(a1-3)Gal(b1-4)GlcNAc
# In short: as §1
# [12] = molecular target: Gal(b1-3)GlcNAc(a1-6)Gal(b1-4)GlcNAc
# In short: as §1
# Gal(b1-3)GlcNAc(b1-2)Man = molecular target: Gal(b1-3)GlcNAc(b1-2)Man
# In short: as §1
# [13] = molecular target: Gal(b1-3)GlcNAc(b1-2)Man(a1-3)[Gal(b1-3)GlcNAc(b1-2)Man(a1-6)]Man(b1-4)GlcNAc(b1-4)GlcNAc
# In short: as §1
# [14] = molecular target: Gal(b1-3)GlcNAc(b1-2)Man(a1-3)[Gal(b1-3)GlcNAc(b1-2)Man(a1-6)]Man(b1-4)GlcNAc(b1-4)[Fuc(a1-6)]GlcNAc
# In short: as §1
# [15] = molecular target: Gal(b1-3)GlcNAc(b1-2)Man(a1-3)[GlcNAc(b1-4)][Gal(b1-3)GlcNAc(b1-2)Man(a1-6)]Man(b1-4)GlcNAc(b1-4)GlcNAc
# In short: as §1
# [16] = molecular target: Gal(b1-3)GlcNAc(b1-2)[Gal(b1-3)GlcNAc(b1-6)]Man(a1-6)[Gal(b1-3)GlcNAc(b1-2)Man(a1-3)]Man(b1-4)GlcNAc(b1-4)GlcNAc
# In short: as §1
# [17] = molecular target: Gal(b1-3)GlcNAc(b1-3)Gal(b1-3)GlcNAc
# In short: as §1
# [18] = molecular target: Gal(b1-3)GlcNAc(b1-3)Gal(b1-4)Glc
# In short: as §1
# [19] = molecular target: Gal(b1-3)GlcNAc(b1-3)Gal(b1-4)GlcNAc
# In short: as §1
# [20] = molecular target: Gal(b1-3)GlcNAc(b1-3)Gal(b1-4)GlcNAc(b1-2)Man(a1-3)[Gal(b1-3)GlcNAc(b1-3)Gal(b1-4)GlcNAc(b1-2)Man(a1-6)]Man(b1-4)GlcNAc(b1-4)GlcNAc
# In short: as §1
binder,measurement,setting,value
B1,glycan array binding signal (z-score),Gal(a1-4)Gal(b1-4)GlcNAc,-0.027
same,glycan array binding signal (z-score),[1],-0.225
same,glycan array binding signal (z-score),[2],-0.181
same,glycan array binding signal (z-score),Gal(a1-4)GlcNAc,0.658
same,glycan array binding signal (z-score),Gal(a1-6)Glc,0.361
same,glycan array binding signal (z-score),Gal(b1-2)Gal,0.199
same,glycan array binding signal (z-score),Gal(b1-3)Gal,2.9
same,glycan array binding signal (z-score),Gal(b1-3)Gal(b1-4)GlcNAc,5
same,glycan array binding signal (z-score),[3],-0.2
same,glycan array binding signal (z-score),Gal(b1-3)GalNAc,2.56
same,glycan array binding signal (z-score),[4],1.27
same,glycan array binding signal (z-score),[5],1.42
same,glycan array binding signal (z-score),Gal(b1-3)GalNAc(b1-3)Gal,2.91
same,glycan array binding signal (z-score),[6],1.31
same,glycan array binding signal (z-score),[7],1.31
same,glycan array binding signal (z-score),[8],1.4
same,glycan array binding signal (z-score),[9],8.65
same,glycan array binding signal (z-score),[10],2.27
same,glycan array binding signal (z-score),Gal(b1-3)GlcNAc,-0.001
same,glycan array binding signal (z-score),[11],-0.285
same,glycan array binding signal (z-score),[12],-0.035
same,glycan array binding signal (z-score),Gal(b1-3)GlcNAc(b1-2)Man,-0.026
same,glycan array binding signal (z-score),[13],0.837
same,glycan array binding signal (z-score),[14],0.136
same,glycan array binding signal (z-score),[15],0.523
same,glycan array binding signal (z-score),[16],0.207
same,glycan array binding signal (z-score),[17],-0.16
same,glycan array binding signal (z-score),[18],-0.2
same,glycan array binding signal (z-score),[19],-0.183
same,glycan array binding signal (z-score),[20],-0.121

# — the supplement of paper PMC8728848
